The chains are these.
B1: Transmembrane prostate androgen-induced protein (TMEPAI) isoform A, wild type, V5-tagged (protein, UniProt Q969W9 1-287)
chain: MHRLMGVNSTAAAAAGQPNVSCTCNCKRSLFQSMEITELEFVQIIIIVVVMMVMVVVITCLLSHYKLSARSFISRHSQGRRREDALSSEGCLWPSESTVSGNGIPEPQVYAPPRPTDRLAVPPFAQRERFHRFQPTYPYLQHEIDLPPTISLSDGEEPPPYQGPCTLQLRDPEQQLELNRESVRAPPNRTIFDSDLMDSARLGGPCPPSSNSGISATCYGSGGRMEGPPPTYSEVIGHYPGSSFQHQQSSGPPSLLEGTRLHHTHIAPLESAAIWSKEKDKQKGHPL
B2: TMEPAI isoform A SIM P186A mutant (protein, UniProt Q969W9 1-287)
chain: MHRLMGVNSTAAAAAGQPNVSCTCNCKRSLFQSMEITELEFVQIIIIVVVMMVMVVVITCLLSHYKLSARSFISRHSQGRRREDALSSEGCLWPSESTVSGNGIPEPQVYAPPRPTDRLAVPPFAQRERFHRFQPTYPYLQHEIDLPPTISLSDGEEPPPYQGPCTLQLRDPEQQLELNRESVRAAPNRTIFDSDLMDSARLGGPCPPSSNSGISATCYGSGGRMEGPPPTYSEVIGHYPGSSFQHQQSSGPPSLLEGTRLHHTHIAPLESAAIWSKEKDKQKGHPL
B3: TMEPAI isoform A double PY motif mutant (Y161A, Y232A) (protein, UniProt Q969W9 1-287)
chain: MHRLMGVNSTAAAAAGQPNVSCTCNCKRSLFQSMEITELEFVQIIIIVVVMMVMVVVITCLLSHYKLSARSFISRHSQGRRREDALSSEGCLWPSESTVSGNGIPEPQVYAPPRPTDRLAVPPFAQRERFHRFQPTYPYLQHEIDLPPTISLSDGEEPPPAQGPCTLQLRDPEQQLELNRESVRAPPNRTIFDSDLMDSARLGGPCPPSSNSGISATCYGSGGRMEGPPPTASEVIGHYPGSSFQHQQSSGPPSLLEGTRLHHTHIAPLESAAIWSKEKDKQKGHPL
B4: TMEPAI isoform A SIM 4A mutant (PPNR186-189 to AAAA) (protein, UniProt Q969W9 1-287)
chain: MHRLMGVNSTAAAAAGQPNVSCTCNCKRSLFQSMEITELEFVQIIIIVVVMMVMVVVITCLLSHYKLSARSFISRHSQGRRREDALSSEGCLWPSESTVSGNGIPEPQVYAPPRPTDRLAVPPFAQRERFHRFQPTYPYLQHEIDLPPTISLSDGEEPPPYQGPCTLQLRDPEQQLELNRESVRAAAAATIFDSDLMDSARLGGPCPPSSNSGISATCYGSGGRMEGPPPTYSEVIGHYPGSSFQHQQSSGPPSLLEGTRLHHTHIAPLESAAIWSKEKDKQKGHPL

Chains of the proteins cited; added tags and fusions are not shown.
UniProt O60346: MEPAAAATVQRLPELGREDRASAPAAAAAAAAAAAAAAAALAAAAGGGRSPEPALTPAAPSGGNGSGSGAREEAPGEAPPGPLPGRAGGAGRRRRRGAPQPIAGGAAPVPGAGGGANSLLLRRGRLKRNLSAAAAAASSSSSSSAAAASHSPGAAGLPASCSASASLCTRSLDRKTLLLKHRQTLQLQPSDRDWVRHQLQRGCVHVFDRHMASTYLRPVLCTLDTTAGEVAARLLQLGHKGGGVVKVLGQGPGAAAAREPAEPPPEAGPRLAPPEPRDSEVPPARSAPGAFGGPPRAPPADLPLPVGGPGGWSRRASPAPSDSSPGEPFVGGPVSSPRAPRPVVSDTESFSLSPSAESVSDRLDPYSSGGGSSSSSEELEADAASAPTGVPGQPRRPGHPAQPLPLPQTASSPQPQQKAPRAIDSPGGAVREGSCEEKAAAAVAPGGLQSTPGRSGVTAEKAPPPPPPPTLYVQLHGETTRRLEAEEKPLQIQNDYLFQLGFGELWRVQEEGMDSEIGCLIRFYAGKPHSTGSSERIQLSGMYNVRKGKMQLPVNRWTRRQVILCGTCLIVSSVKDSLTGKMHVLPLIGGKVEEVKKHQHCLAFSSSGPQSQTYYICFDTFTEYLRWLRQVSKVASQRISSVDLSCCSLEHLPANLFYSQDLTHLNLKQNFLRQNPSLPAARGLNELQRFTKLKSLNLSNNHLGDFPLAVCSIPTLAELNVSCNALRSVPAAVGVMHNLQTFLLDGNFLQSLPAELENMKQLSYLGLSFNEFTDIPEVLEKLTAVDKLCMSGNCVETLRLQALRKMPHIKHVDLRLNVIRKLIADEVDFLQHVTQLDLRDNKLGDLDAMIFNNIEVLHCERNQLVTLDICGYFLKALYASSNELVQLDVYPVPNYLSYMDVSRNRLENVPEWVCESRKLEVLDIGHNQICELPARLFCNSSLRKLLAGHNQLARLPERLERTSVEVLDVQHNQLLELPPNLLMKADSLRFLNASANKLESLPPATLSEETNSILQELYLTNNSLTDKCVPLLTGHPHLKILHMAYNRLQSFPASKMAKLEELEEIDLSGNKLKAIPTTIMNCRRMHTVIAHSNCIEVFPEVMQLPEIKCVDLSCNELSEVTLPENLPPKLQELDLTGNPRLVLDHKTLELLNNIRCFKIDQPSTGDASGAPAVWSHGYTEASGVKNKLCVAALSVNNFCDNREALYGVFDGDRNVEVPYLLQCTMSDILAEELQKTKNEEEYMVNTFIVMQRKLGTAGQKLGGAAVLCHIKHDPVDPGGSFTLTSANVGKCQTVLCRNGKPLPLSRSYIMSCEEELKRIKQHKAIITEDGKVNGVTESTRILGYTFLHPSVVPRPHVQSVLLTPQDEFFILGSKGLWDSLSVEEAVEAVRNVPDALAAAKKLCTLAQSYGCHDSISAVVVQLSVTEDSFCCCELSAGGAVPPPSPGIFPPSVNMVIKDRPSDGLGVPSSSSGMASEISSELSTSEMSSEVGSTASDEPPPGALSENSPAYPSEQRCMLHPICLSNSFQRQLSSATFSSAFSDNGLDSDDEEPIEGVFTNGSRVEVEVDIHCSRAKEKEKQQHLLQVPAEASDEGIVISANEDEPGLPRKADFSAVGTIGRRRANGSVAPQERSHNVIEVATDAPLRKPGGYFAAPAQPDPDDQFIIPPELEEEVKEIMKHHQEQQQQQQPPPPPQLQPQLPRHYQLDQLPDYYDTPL
UniProt Q96PU5: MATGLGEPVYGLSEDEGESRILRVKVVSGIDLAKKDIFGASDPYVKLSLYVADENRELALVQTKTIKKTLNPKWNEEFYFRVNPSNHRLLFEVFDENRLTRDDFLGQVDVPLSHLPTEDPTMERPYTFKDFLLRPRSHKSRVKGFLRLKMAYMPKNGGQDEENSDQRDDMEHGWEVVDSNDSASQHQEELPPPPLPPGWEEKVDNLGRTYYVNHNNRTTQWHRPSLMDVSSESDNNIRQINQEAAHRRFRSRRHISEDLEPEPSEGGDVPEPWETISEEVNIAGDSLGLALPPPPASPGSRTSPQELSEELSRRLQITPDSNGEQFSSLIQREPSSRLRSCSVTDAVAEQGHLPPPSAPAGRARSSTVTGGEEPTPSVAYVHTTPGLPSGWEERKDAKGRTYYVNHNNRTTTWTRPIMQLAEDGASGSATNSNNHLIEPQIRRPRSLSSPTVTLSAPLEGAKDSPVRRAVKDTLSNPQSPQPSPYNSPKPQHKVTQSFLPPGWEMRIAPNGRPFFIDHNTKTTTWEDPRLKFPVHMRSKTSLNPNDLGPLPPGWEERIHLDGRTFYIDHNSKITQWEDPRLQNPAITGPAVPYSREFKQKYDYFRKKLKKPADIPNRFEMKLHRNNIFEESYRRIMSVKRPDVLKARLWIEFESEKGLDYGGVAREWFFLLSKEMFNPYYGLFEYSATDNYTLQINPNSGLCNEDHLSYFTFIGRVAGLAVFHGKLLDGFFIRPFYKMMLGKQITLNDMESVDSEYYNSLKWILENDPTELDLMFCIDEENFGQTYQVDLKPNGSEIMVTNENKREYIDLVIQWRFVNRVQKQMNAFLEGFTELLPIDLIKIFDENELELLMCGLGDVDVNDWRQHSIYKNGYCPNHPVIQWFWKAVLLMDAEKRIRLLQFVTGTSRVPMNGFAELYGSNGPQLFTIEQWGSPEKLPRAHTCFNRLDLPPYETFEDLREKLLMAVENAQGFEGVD

Results are given in words; binding and its absence hold for the method and conditions named. Binding seen in cells or lysates may run through a third protein. Some entries that bind do so weakly or less than the wild type. Where a sequence is shown, tags or fusion partners need not be part of it.

In one assay the target is Pleckstrin homology (PH) domain and leucine-rich repeat protein phosphatase 1 (PHLPP1) (UniProt O60346). The assay is described as follows: co-IP; HEK-293T cells transfected with the indicated plasmids; lysates in TNE buffer (10 mM Tris pH 7.4, 150 mM NaCl, 1 mM EDTA, 1% NP-40) with protease and phosphatase inhibitors; indicated antibodies overnight at 4 °C, protein G or A beads 50 min; MG132 present for NEDD4-2/PHLPP1 and …; increasing amounts of TMEPAI-V5 in Figure 7F.
Consider B1, for which the binding result was “no binding”.

The next assay deals with NEDD4-2, an E3 ubiquitin ligase (UniProt Q96PU5). Described as above.
With “Pleckstrin homology (PH) domain and leucine-rich repeat protein phosphatase 1 (PHLPP1) (from UniProt O60346 1-1717) (enzyme)”, the binding result is “binds”.

On to B1, for which the binding entry is listed as “binds”. On the same count and under the same terms, then B2, with “binds”; and B3, with “no binding”.

For the molecule B4, the binding entry is on record as “binds”.

The values above are taken from publication PMC8508116.
